# “And” between values parts separate entries of the source, which are not always exact repeats. Identical values can stand only once. Hit rate of the full screen: of about 50,000 compounds, about 800 (1.6%) showed an effect of 50% or more. Some of the results follow.
# Target: Bcl-2-like protein 10 (Homo sapiens) (UniProt Q9HD36)
# Assay: TR3 peptide-Bcl-B binding displacers, biochemical primary FP assay, phenotype converters (AID 1240);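 further: 0% = Bcl-B with tracer peptide and DMSO and 100% = tracer peptide lacking Bcl-B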
# Conditions: GST-Bcl-B / FITC-TR3 peptide fluorescence polarization; stronger effect = higher value; compound at 3.75 mg/L
# Chain of UniProt Q9HD36 (Q9HD36 whole entry, looked up): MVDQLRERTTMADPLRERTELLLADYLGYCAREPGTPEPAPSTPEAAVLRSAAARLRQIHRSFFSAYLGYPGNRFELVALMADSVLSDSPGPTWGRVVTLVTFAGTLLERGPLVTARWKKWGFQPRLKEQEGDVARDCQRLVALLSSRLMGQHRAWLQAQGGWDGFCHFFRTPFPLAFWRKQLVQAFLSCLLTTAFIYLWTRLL
row,Compound,displacement
1,COc1ccc(/C=C2\SC(=S)N(CCCC(=O)Nc3ccc(O)cc3)C2=O)cc1,8.1%
2,Cc1ccc(/C=N/NS(=O)(=O)c2ccc(Cl)cc2)cc1,-1.7%
3,COc1ccccc1C/C(N)=N/OC(=O)c1cccc(Br)c1,2.9%
4,O=[N+]([O-])c1ccc(O)c(/C=N/Nc2nc(-c3ccc(Br)cc3)cs2)c1,-8.8%
5,CCN(CC)c1ccc(NC(=S)Nc2ccc(F)cc2)cc1,-2.8%
6,COc1ccc(N=C2SC(C(=O)N3CCN(c4ccccn4)CC3)CC(=O)N2C)cc1 (stereo not drawn),-7.6%
7,N#CC(c1ccc(O)cc1)N1CCOCC1 (stereo not drawn),-3.5%
8,CCOC(=O)NC(NCc1ccccc1)(C(F)(F)F)C(F)(F)F,11.1%
9,COc1cc(C2SCC(=O)N2CCN2CCCCC2)cc([N+](=O)[O-])c1O (stereo not drawn),11.6%
10,Cc1ccc(C2CC(C(F)(F)F)n3nc(C(=O)N4CCN(c5ccccc5)CC4)cc3N2)cc1 (stereo not drawn),1%
11,Cc1cccc(N2C(=O)C3C4c5ccccc5C(C)(c5ccccc54)C3C2=O)c1C (stereo not drawn),-13.6%
12,O=[N+]([O-])c1cc(S(=O)(=O)Nc2cc(Cl)ccc2Cl)ccc1Cl,-9.6%
13,C=CCOC(=O)C1=C(C)N(CC)C(=O)NC1c1ccc(Br)cc1 (stereo not drawn),12.2%
14,O=C(c1ccc(F)cc1)N1CCN(C(=O)c2ccc([N+](=O)[O-])cc2)CC1,11%
15,COc1ccc(NC(=O)C2=C(C)NC(=O)NC2c2ccccc2Br)cc1 (stereo not drawn),-10.8%
16,COC(=O)C1=C(C)NC2=C(C(=O)c3ccccc32)C1c1ccc(OCc2ccc(F)cc2)c(OC)c1 (stereo not drawn),10.7%
17,O=C(Nc1c[nH]c(=O)[nH]c1=O)c1cccc([N+](=O)[O-])c1,3%
18,O=C1CCCC2=C1C(c1ccc(F)cc1)Nc1ccccc1N2 (stereo not drawn),-5.1%
19,O=C(COc1ccccc1)NCCCn1ccnc1,4.7%
20,Cc1cccnc1N(C(=O)c1cccc(Cl)c1)C(=O)c1cccc(Cl)c1,-3.2%
21,CCOC(=O)c1sc(NC(=O)c2ccccc2C)nc1C,0%
22,Nc1nc(CN2C(=O)c3ccccc3C2=O)cs1,-5.3%

row,Compound,displacement
1,CCOC(=O)c1c(NC(=O)C2(c3ccccc3)CCCC2)sc2c1CC(C)(C)OC2,-7.4%
2,COc1ccccc1CC1CC(=O)N(c2ccc([N+](=O)[O-])cc2)C1=O (stereo not drawn),11.1%
3,O=C(N/C(=C/c1ccc(Br)cc1)C(=O)N1CCCC1)c1ccccc1F,-8.9%
4,CCOc1ccc(Cl)cc1/C=c1\sc2nc3ccccc3n2c1=O,13.4%
5,COc1ccccc1N1CCN(C(=O)CN(c2ccccc2C)S(C)(=O)=O)CC1,-15.9%
6,Cc1ccccc1NC(=O)c1c(NC(=O)c2ccccc2C)sc2c1CCCCC2,13%
7,COc1cccc(N2C(=O)C(=O)/C(=C(\O)c3ccccc3)C2c2ccc(OC)cc2OC)c1 (stereo not drawn),6.8%
8,COc1ccc(/C=C2/SC(=S)N(c3cccc(Cl)c3)C2=O)c2ccccc12,15.4%
9,N=c1n(N)c2ccccc2n1CCO,-2.3%
10,N#C/C(=C/c1cc(Br)cc(Br)c1O)c1ccc([N+](=O)[O-])cc1,3.2%
11,O=C(O)c1ccc(NC(=O)c2ccccc2F)c(NC(=O)c2ccccc2F)c1,12.6%
12,COC(=O)c1ccc(CN2CCc3ccccc3C2)cc1,1.7%
13,O=[N+]([O-])c1ccc(NCCCNS(=O)(=O)c2ccc(Cl)cc2)cc1,9.2%
14,COc1cccc(C(=O)N2CCN(Cc3ccc(SC)cc3)CC2)c1,-9.1%
15,Cc1cc(C2CCC(c3ccc(NC(=O)c4cccs4)c(C)c3)CC2)ccc1NC(=O)c1cccs1 (stereo not drawn),-5%
16,c1ccc(-c2n[nH]c(C3COc4ccccc4O3)c2-c2nc3ccccc3[nH]2)cc1 (stereo not drawn),6%
17,Cc1ccc(S(=O)(=O)n2cc(/C=C3\SC(N)=NC3=O)c3ccccc32)cc1,11.2%
18,CC1=C(C(=O)Nc2ccccc2C)C(c2ccccc2Br)NC(=O)N1 (stereo not drawn),13.8%
19,O=C(NC(=O)c1ccccn1)NC(c1ccccc1)c1ccccc1,-2.1% and 8.8%
20,O=C(O)C1CC=CCC1C(=O)Nc1ccccc1Nc1ccccc1 (stereo not drawn),-6.1%
21,COc1ccc(Cl)cc1NS(=O)(=O)c1ccc(F)cc1,-16.7%
22,Cc1ccc(-c2cc(C(=O)NCCN3CCOCC3)c3ccccc3n2)cc1,-0.2%

row,Compound,displacement
1,Brc1ccc(-c2nc(-c3ccncc3)no2)cc1,-4.6%
2,CC1CCN(c2ccc(C(=O)c3ccccc3)cc2F)CC1,-9.7%
3,O=C(COc1ccccc1Cl)Nc1cccc(-c2nc3ncccc3o2)c1,42.5%
4,C=CCC(Nc1ccccc1)C12C=CC(O1)C(C(=O)OC)=C2C(=O)OC (stereo not drawn),-12.8%
5,CC(=O)OCC12COC(c3ccc4c(c3)OCO4)C(C(C)=CC1C)C2C (stereo not drawn),0.6%
6,O=C1/C(=C/N2CCCCC2)c2ccccc2C(=O)N1c1ccccc1,1.8%
7,O=C(NCCCn1ccnc1)c1ccccc1[N+](=O)[O-],3.9%
8,O=c1c2c(nc3cc(-c4ccc(Br)cc4)[nH]n13)CCCC2,11%
9,COc1cc(/C=N/Nc2ccc3ccccc3n2)c([N+](=O)[O-])cc1OC,-36.3%
10,COC(=O)c1ccc(-n2ncnc2-c2cccc(Br)c2)cc1,-7.8%
11,O=S(=O)(Nc1ccc(O)cc1)c1ccc(F)cc1,10.3%
12,COc1ccc(NC(=O)C2=C(C)NC(=O)NC2c2cccc(OC)c2)cc1 (stereo not drawn),-15.9%
13,CCSc1nnc2n(Cc3ccccc3)c(=O)c3c4c(sc3n12)CC(C(C)(C)C)CC4 (stereo not drawn),-8.9%
14,FC(F)(F)c1cc(-c2cccs2)c2nncn2n1,3.6%
15,CC(=O)c1ccc(N2CCN(C3CC(=O)N(c4ccc(C)cc4)C3=O)CC2)cc1 (stereo not drawn),2%
16,COc1ccc(/C=C2\SC(=S)NC2=O)c(OC)c1OC,5.6%
17,O=C1NC(=O)/C(=C/c2ccc3c(c2)OCO3)S1,36.2%
18,COc1ccc(N2C(=O)CC(Nc3ccc(O)cc3)C2=O)cc1 (stereo not drawn),6%
19,Cc1cccc(OCCOc2cccc(/C=N/n3cnnc3)c2)c1,0.9%
20,Brc1ccc(-c2noc(-c3ccc(-c4ccccc4)cc3)n2)cc1,-5.3%
21,OC(C#CC(O)(c1ccccc1)c1ccccc1)c1cccnc1 (stereo not drawn),5%
22,CC(C)c1ccc(N(CC(=O)N(C)Cc2ccccc2)S(=O)(=O)c2ccccc2)cc1,1.1%

row,Compound,displacement
1,CS(=O)(=O)N(CC(=O)N1CCOCC1)c1ccccc1Br,10.2%
2,COc1ccc(COC(=O)C2=C(C)NC(=O)NC2c2ccccc2F)cc1 (stereo not drawn),2.3%
3,Cc1cccc(C)c1NC(=O)c1ccc(C2SCC(=O)N2Cc2ccccc2)cc1 (stereo not drawn),-5.1%
4,O=C(NC(=S)Nc1ccc2oc(-c3ccc(F)cc3)nc2c1)c1ccco1,35.5%
5,CC(=O)NN1C(=O)/C(=C/c2ccc(Br)o2)SC1=S,0.4%
6,CCOC(=O)NC(Nc1cc(F)ccc1C)(C(F)(F)F)C(F)(F)F,4.3%
7,CC1=C(C(=O)Nc2ccccc2)C(c2ccccc2Br)NC(=S)N1 (stereo not drawn),-1.9%
8,Cc1ccc(C)c(S(=O)(=O)Nc2ccc(C)c(C)c2)c1,16.2%
9,NC(=O)c1ccc(Oc2ccc([N+](=O)[O-])cc2)cc1,1.2%
10,COc1ccc(N2C(=O)C3C(C2=O)N2CCCN2C3c2ccc(Cl)cc2)cc1 (stereo not drawn),-0.1%
11,COc1ccc(NC(=O)C2CC(=O)N(c3ccc(Br)cc3)C2)c(OC)c1 (stereo not drawn),9.5%
12,Brc1ccc2ncnc(NCc3cccnc3)c2c1,1.9%
13,O=C(O)/C=C/C(=O)Nc1ccc(C2(c3ccc(NC(=O)/C=C/C(=O)O)cc3)c3ccccc3-c3ccccc32)cc1,11.8%
14,COc1cc(NC(=O)c2cccc([N+](=O)[O-])c2)ccc1NC(=O)c1ccco1,8.7%
15,CCOc1ccc(C(NC(=O)c2ccc(F)cc2)c2ccc(OC)c(OC)c2)cc1 (stereo not drawn),2.1%
16,COC(=O)c1ccc(NC(=O)c2ccc(F)cc2)cc1,-1.9%
17,COc1ccc(S(=O)(=O)N/N=C/c2cn(Cc3ccccc3)c3ccccc23)cc1,-4.1%
18,CCOC(=O)CNC(=O)c1ccc(C#CC(C)(C)O)cc1,-14.2%
19,NNC(=O)COc1ccccc1OCCOCCOc1ccccc1OCC(=O)NN,-10.4%
20,Oc1c(N=Nc2cc(C(F)(F)F)ccc2Cl)sc2ccccc12,-18.9%
21,CCOc1cc(/C=N/NC(=O)c2cc(C)[nH]n2)ccc1Oc1ccc([N+](=O)[O-])cc1[N+](=O)[O-],0.4%
22,COC(=O)C1=CNC=C(C(=O)OC)C1c1ccc(C)cc1,3.5%

row,Compound,displacement
1,CS(=O)(=O)N(CC(=O)O)c1ccc(Cl)cc1,11.4%
2,O=C(NCCC1=CCCCC1)c1ccc([N+](=O)[O-])cc1,5.7%
3,COc1ccc(Br)cc1C(=O)Nc1ccc(-c2nc3ccccc3s2)c(O)c1,2.3%
4,O=C(Nc1cc([N+](=O)[O-])ccc1O)c1cccc2ccccc12,2.7%
5,COc1ccc(NCn2nnc3ccccc32)c([N+](=O)[O-])c1,1.4%
6,COc1ccc(S(=O)(=O)Nc2ccc([N+](=O)[O-])cc2C)cc1,-13.5%
7,COc1ccc(/C=N/Nc2nnc3c(n2)[nH]c2ccc(C)cc23)cc1OC,4.5%
8,CC(=O)COc1ccc2c(oc(=O)c3ccccc32)c1C,9.4%
9,COc1cc(/C=N/NC(=O)c2sc(N)nc2C)ccc1O,-28.2%
10,Cn1cc(/C=C2/SC(=S)N(c3cccc(Cl)c3)C2=O)c2ccccc21,-2%
11,COc1ccc(OC)c(NC(=O)CN(c2cccc(Cl)c2)S(=O)(=O)c2ccccc2)c1,8%
12,O=C1/C(=C\c2ccc(-c3ccc([N+](=O)[O-])cc3)o2)SC(=S)N1c1ccc(O)cc1,13.7%
13,O=C(/C=C/Nc1cc(Cl)ccc1O)c1cccs1,-2.3%
14,O=C(CSc1nnc(-c2ccc(Cl)cc2Cl)o1)Nc1ccccc1,-1.1%
15,COC(=O)c1ccccc1NC(=O)c1cc(I)ccc1Cl,-4.1%
16,CCOc1cc(C(=O)Nc2c(C)ccc3nsnc23)cc(OCC)c1OCC,-2.7%
17,CCN(CC)Cc1c(O)ccc2c(C)cc(=O)oc12,-7.1%
18,Cc1ccc(OCC(=O)NC(C)C)cc1,1.1%
19,COc1ccc(CCC(=O)Nc2cc([N+](=O)[O-])ccc2C)cc1,-3.2%
20,CSc1nc(=O)n(-c2ccc3ccccc3c2)c(C)c1C(C)=O,15.9%
